For 18 molecules, enrichment score results are on record in the supplement of paper PMC10369915.

Some of the results follow. Rule as the data show it: active = 3.2 or more and inactive = the rest. Only a few entries rise above the background.
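Also: displayed peptides selected on beads carrying the immobilized SH2 domain, with library peptides lacking any tyrosine serving as negative controls.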

The first test concerns the target SHP2 C-SH2 domain E139D. In words: enrichment score (SH2-bound / input frequency) (ratio); bacterial display of known human phosphotyrosine sites (pTyr-Var adds point mutants) read by sequencing; higher = stronger binding; tyrosines were phosphorylated by kinases first. The note with it: peptide library: pTyr-Var.
With SGTFQYIIAKF [FOXL2_Y83_I80T_YF], the enrichment score is inactive: 0.825.

As for FKIFLYTLNDN [FN1_Y1975_YF], the enrichment score is inactive: 0.71.

Consider SGIYQYNIAKF [FOXL2_Y83_I84N], for which the enrichment score is inactive: 0.941.

With YTGNTYRVGDT [FN1_Y106], the enrichment score was inactive: 0.712.

As to QPGTDYKIFRF [FN1_Y1970_L1974R_YF], the enrichment score was inactive: 0.824.

With SLAARYFNWVS [FLT4_Y1230_YF], the enrichment score was inactive: 2.1.

As to CERLPYDANKW [FLT1_Y815_S818N], the enrichment score is inactive: 1.03.

For the molecule QGIPWYHSQSP [FOXF1_Y331_R330W], the enrichment score is inactive: 1.48.

As for FHNSEYGELSE [FLT4_Y1337_Y1333H], the enrichment score is inactive: 0.549.

On to FTGSTYRVGDT [FN1_Y106_N104S_YF], for which the enrichment score is inactive: 0.852.

Regarding LAARFYNWVCF [FLT4_Y1231_S1235C_YF], the enrichment score was inactive: 2.22.

For EIIPFYGMSTF [FNDC3B_Y175_YF], the enrichment score is inactive: 0.783.

Consider KFACSYTPVKA [FLNB_Y708_T703K_YF], for which the enrichment score is inactive: 0.906.

Regarding PSPMPYASCQM [FOXL2_Y215], the enrichment score was inactive: 0.558.

ASFGPYTRVQS [FOXL2_Y258_YF]: the enrichment score was inactive: 0.822.

LVRPPYSFSAL [FOXI1_Y126_YF]: the enrichment score is inactive: 0.922.

Take FFNSEYGELSE [FLT4_Y1337_YF]: the enrichment score was inactive: 1.06.

With AGADGYDYLAP [FOXL2_Y186_G187D], the enrichment score is inactive: 0.634.

A further test has as its target SHP2 C-SH2 domain wild-type. The test is described as above. The conditions noted are these: peptide library: pTyr-Var.
For SGTFQYIIAKF [FOXL2_Y83_I80T_YF], the enrichment score is inactive: 0.902.

FKIFLYTLNDN [FN1_Y1975_YF]: the enrichment score was inactive: 0.842.

Consider SGIYQYNIAKF [FOXL2_Y83_I84N], for which the enrichment score is inactive: 1.

As for YTGNTYRVGDT [FN1_Y106], the enrichment score was inactive: 0.681.

Take QPGTDYKIFRF [FN1_Y1970_L1974R_YF]: the enrichment score is inactive: 1.03.

Regarding SLAARYFNWVS [FLT4_Y1230_YF], the enrichment score was inactive: 1.95.

In the case of CERLPYDANKW [FLT1_Y815_S818N], the enrichment score was inactive: 1.16.

Turning to QGIPWYHSQSP [FOXF1_Y331_R330W], the enrichment score is inactive: 1.56.

With FHNSEYGELSE [FLT4_Y1337_Y1333H], the enrichment score was inactive: 0.466.

FTGSTYRVGDT [FN1_Y106_N104S_YF]: the enrichment score was inactive: 0.661.

In the case of LAARFYNWVCF [FLT4_Y1231_S1235C_YF], the enrichment score was inactive: 2.22.

For the molecule EIIPFYGMSTF [FNDC3B_Y175_YF], the enrichment score was inactive: 0.75.

For KFACSYTPVKA [FLNB_Y708_T703K_YF], the enrichment score was inactive: 1.21.

As to PSPMPYASCQM [FOXL2_Y215], the enrichment score is inactive: 0.663.

Turning to ASFGPYTRVQS [FOXL2_Y258_YF], the enrichment score was inactive: 1.78.

Take LVRPPYSFSAL [FOXI1_Y126_YF]: the enrichment score is inactive: 0.874.

With FFNSEYGELSE [FLT4_Y1337_YF], the enrichment score was inactive: 0.764.

For the molecule AGADGYDYLAP [FOXL2_Y186_G187D], the enrichment score was inactive: 0.627.

The next test addresses SHP2 N-SH2 domain L43F. Described as above. The note with it: peptide library: pTyr-Var.
SGTFQYIIAKF [FOXL2_Y83_I80T_YF]: the enrichment score is inactive: 1.02.

FKIFLYTLNDN [FN1_Y1975_YF]: the enrichment score is inactive: 1.44.

As for SGIYQYNIAKF [FOXL2_Y83_I84N], the enrichment score was inactive: 2.01.

In the case of YTGNTYRVGDT [FN1_Y106], the enrichment score was inactive: 0.663.

Turning to QPGTDYKIFRF [FN1_Y1970_L1974R_YF], the enrichment score is inactive: 0.766.

For SLAARYFNWVS [FLT4_Y1230_YF], the enrichment score was inactive: 1.99.

Take CERLPYDANKW [FLT1_Y815_S818N]: the enrichment score is inactive: 0.849.

For the molecule QGIPWYHSQSP [FOXF1_Y331_R330W], the enrichment score was inactive: 1.43.

As to FHNSEYGELSE [FLT4_Y1337_Y1333H], the enrichment score is inactive: 0.466.

In the case of FTGSTYRVGDT [FN1_Y106_N104S_YF], the enrichment score was inactive: 0.817.

Consider LAARFYNWVCF [FLT4_Y1231_S1235C_YF], for which the enrichment score was inactive: 2.08.

Turning to EIIPFYGMSTF [FNDC3B_Y175_YF], the enrichment score is inactive: 0.53.

As to KFACSYTPVKA [FLNB_Y708_T703K_YF], the enrichment score was inactive: 0.898.

As to PSPMPYASCQM [FOXL2_Y215], the enrichment score was inactive: 0.534.

For the molecule ASFGPYTRVQS [FOXL2_Y258_YF], the enrichment score was inactive: 0.763.

For the molecule LVRPPYSFSAL [FOXI1_Y126_YF], the enrichment score is inactive: 1.06.

With FFNSEYGELSE [FLT4_Y1337_YF], the enrichment score was inactive: 0.808.

In the case of AGADGYDYLAP [FOXL2_Y186_G187D], the enrichment score was inactive: 0.577.

For a further test, the target named is SHP2 N-SH2 domain T42A. The description is as above. The note with it: peptide library: pTyr-Var.
For SGTFQYIIAKF [FOXL2_Y83_I80T_YF], the enrichment score was inactive: 0.684.

With FKIFLYTLNDN [FN1_Y1975_YF], the enrichment score was inactive: 0.76.

Regarding SGIYQYNIAKF [FOXL2_Y83_I84N], the enrichment score was inactive: 1.42.

For the molecule YTGNTYRVGDT [FN1_Y106], the enrichment score was inactive: 0.536.

With QPGTDYKIFRF [FN1_Y1970_L1974R_YF], the enrichment score is inactive: 0.479.

Consider SLAARYFNWVS [FLT4_Y1230_YF], for which the enrichment score is inactive: 1.92.

Regarding CERLPYDANKW [FLT1_Y815_S818N], the enrichment score is inactive: 0.792.

On to QGIPWYHSQSP [FOXF1_Y331_R330W], for which the enrichment score is inactive: 1.3.

With FHNSEYGELSE [FLT4_Y1337_Y1333H], the enrichment score was inactive: 0.651.

FTGSTYRVGDT [FN1_Y106_N104S_YF]: the enrichment score was inactive: 0.853.

Consider LAARFYNWVCF [FLT4_Y1231_S1235C_YF], for which the enrichment score is inactive: 2.24.

EIIPFYGMSTF [FNDC3B_Y175_YF]: the enrichment score was inactive: 0.618.

Consider KFACSYTPVKA [FLNB_Y708_T703K_YF], for which the enrichment score is inactive: 2.55.

Regarding PSPMPYASCQM [FOXL2_Y215], the enrichment score is inactive: 0.606.

For ASFGPYTRVQS [FOXL2_Y258_YF], the enrichment score is inactive: 1.13.

For the molecule LVRPPYSFSAL [FOXI1_Y126_YF], the enrichment score was inactive: 0.851.

In the case of FFNSEYGELSE [FLT4_Y1337_YF], the enrichment score was inactive: 0.889.

With AGADGYDYLAP [FOXL2_Y186_G187D], the enrichment score is inactive: 0.58.

The next test has as its target SHP2 N-SH2 domain T52S. Described as above. The note with it: peptide library: pTyr-Var.
As to SGTFQYIIAKF [FOXL2_Y83_I80T_YF], the enrichment score was inactive: 0.852.

For FKIFLYTLNDN [FN1_Y1975_YF], the enrichment score was inactive: 1.64.

On to SGIYQYNIAKF [FOXL2_Y83_I84N], for which the enrichment score was inactive: 1.66.

In the case of YTGNTYRVGDT [FN1_Y106], the enrichment score is inactive: 0.623.

Turning to QPGTDYKIFRF [FN1_Y1970_L1974R_YF], the enrichment score was inactive: 0.79.

As for SLAARYFNWVS [FLT4_Y1230_YF], the enrichment score was inactive: 2.23.

In the case of CERLPYDANKW [FLT1_Y815_S818N], the enrichment score is inactive: 0.73.

Consider QGIPWYHSQSP [FOXF1_Y331_R330W], for which the enrichment score was inactive: 1.08.

For the molecule FHNSEYGELSE [FLT4_Y1337_Y1333H], the enrichment score is inactive: 0.885.

In the case of FTGSTYRVGDT [FN1_Y106_N104S_YF], the enrichment score was inactive: 0.801.

As for LAARFYNWVCF [FLT4_Y1231_S1235C_YF], the enrichment score was inactive: 2.17.

For the molecule EIIPFYGMSTF [FNDC3B_Y175_YF], the enrichment score is inactive: 0.584.

As to KFACSYTPVKA [FLNB_Y708_T703K_YF], the enrichment score was inactive: 0.786.

For the molecule PSPMPYASCQM [FOXL2_Y215], the enrichment score is inactive: 0.499.

ASFGPYTRVQS [FOXL2_Y258_YF]: the enrichment score was inactive: 0.788.

For LVRPPYSFSAL [FOXI1_Y126_YF], the enrichment score was inactive: 1.13.

As for FFNSEYGELSE [FLT4_Y1337_YF], the enrichment score was inactive: 0.94.

As for AGADGYDYLAP [FOXL2_Y186_G187D], the enrichment score is inactive: 0.522.

The target in the next test is SHP2 N-SH2 domain wild-type. The description is as above. The conditions noted are these: peptide library: pTyr-Var.
For SGTFQYIIAKF [FOXL2_Y83_I80T_YF], the enrichment score is inactive: 1.02.

For the molecule FKIFLYTLNDN [FN1_Y1975_YF], the enrichment score was inactive: 1.08.

As to SGIYQYNIAKF [FOXL2_Y83_I84N], the enrichment score was inactive: 0.973.

As for YTGNTYRVGDT [FN1_Y106], the enrichment score is inactive: 0.717.

For the molecule QPGTDYKIFRF [FN1_Y1970_L1974R_YF], the enrichment score was inactive: 1.01.

With SLAARYFNWVS [FLT4_Y1230_YF], the enrichment score is inactive: 1.88.

On to CERLPYDANKW [FLT1_Y815_S818N], for which the enrichment score was inactive: 1.15.

QGIPWYHSQSP [FOXF1_Y331_R330W]: the enrichment score was inactive: 1.24.

In the case of FHNSEYGELSE [FLT4_Y1337_Y1333H], the enrichment score was inactive: 0.472.

With FTGSTYRVGDT [FN1_Y106_N104S_YF], the enrichment score is inactive: 0.709.

Consider LAARFYNWVCF [FLT4_Y1231_S1235C_YF], for which the enrichment score is inactive: 2.05.

As to EIIPFYGMSTF [FNDC3B_Y175_YF], the enrichment score is inactive: 0.722.

For the molecule KFACSYTPVKA [FLNB_Y708_T703K_YF], the enrichment score is inactive: 0.812.

For PSPMPYASCQM [FOXL2_Y215], the enrichment score is inactive: 0.668.

In the case of ASFGPYTRVQS [FOXL2_Y258_YF], the enrichment score was inactive: 0.675.

In the case of LVRPPYSFSAL [FOXI1_Y126_YF], the enrichment score was inactive: 0.942.

For FFNSEYGELSE [FLT4_Y1337_YF], the enrichment score was inactive: 0.972.

For the molecule AGADGYDYLAP [FOXL2_Y186_G187D], the enrichment score was inactive: 0.608.
